Assay results published in the RNAGym collection of RNA variant scans (doi:10.7554/elife.90254).
Read counts are not given, so values of variants with three or more changes are uncertain.

B1: LINE1-mini (parent)
chain: GGCAGAGCUCAACACAGCGUGGCAAAGUGGCUGUGGCUAGACUGCC

Variants of: B1
Experiment: self-cleavage, relative activity (ratio to wild type); higher = more cleavage; in vitro, sequencing; the parent is a self-cleaving ribozyme

Row | Variant | self-cleavage
1 | U20G A25C G36C | 0.03
2 | U20C C23G G40A | 0.09
3 | U20C G40C U43A G44C | 0.03
4 | U20G G22U U43A | 0.11
5 | U20G C23A G40U C46G | 0.46
6 | U20G G33U A39C | 0.02
7 | U20G G27U C37G A41G | 0.01
8 | U20G G29U U38G | 0.01
9 | U20C U28C C37U | 0.02
10 | U20G G22A A39C | 0.04
11 | U20C C23A G30A | 0.05
12 | U20G A25C A39C U43C | 0.1
13 | U20C G29A A39G | 0.04
14 | U20C G27U U38A | 0.82
15 | U20C G27U G30A | 0.79
16 | U20G A26G C37U G40U | 0.02
17 | U20G A24C G40U | 0.06
18 | U20G G21A C31U U38C U43A | 0
19 | U20G G30A U38C | 0.03
20 | U20G A25C A26U G36A | 0.08
21 | U20C A26C G30C C37G U43C | 0.02
22 | U20G G29A C46A | 0.04
23 | U20G G21U G22U | 0.32
24 | U20C U32G G33U | 0.01

Row | Variant | self-cleavage
25 | U20C G30A C45U | 0.33
26 | U20G A39G A41C C42G | 0.02
27 | U20C U32A A39C G40U | 0.04
28 | U20C G22C U32A C37G G40C A41U C42G | 0.01
29 | U20C U28G C37U U38C | 0.04
30 | U20G G21U A39C | 0.15
31 | U20C U34G G44C C45G | 0.03
32 | U20C A26G G30U G35A C46U | 0.02
33 | U20G C37G U38A C45A | 0.01
34 | U20G C31G G40C | 0.01
35 | U20G G30U G44U | 0.03
36 | U20G A39C A41U | 0.23
37 | U20G G30C C31U | 0.41
38 | U20C C31U G40C | 0.01
39 | U20C G29C U32C | 0.08
40 | U20G C31G C37U | 0.02
41 | U20G G27A U28A | 0.11
42 | U20G C31A G35A C45G C46U | 0.03
43 | U20G A24G G30U U32C G44A | 0.05
44 | U20G G22A G40A C42G | 0.08
45 | U20C G33C C42A C46U | 0.02
46 | U20G C31U U43A | 0.02
47 | U20C G22A C23G G30U U43C | 0.04
48 | U20G G21U G30C G33U | 0.04

Row | Variant | self-cleavage
49 | U20G G27U C31A G33U | 0.05
50 | U20G A24G A25G | 0.29
51 | U20G C37A A41C C42A | 0
52 | U20G C31A U34G | 0.13
53 | U20G C23G G33C G40A | 0.04
54 | U20C G27A C46G | 0.14
55 | U20C G21C G29U G35U | 0.02
56 | U20G C31G U32G | 0.03
57 | U20G G21U C46A | 1.76
58 | U20C G33C G36A A41C | 0.05
59 | U20C C23G U43A | 0.06
60 | U20C C23U G33A | 0.7
61 | U20C C37U G44U | 0.07
62 | U20C U32C C37G | 0.03
63 | U20G G21A U34A | 0.14
64 | U20C A26G G29U G30C U38C | 0.28
65 | U20G C23A A26U | 0.27
66 | U20G G21C U34C | 0.2
67 | U20G G29C G40A | 0.02
68 | U20G G29C U34C | 0.09
69 | U20C G35U C42G | 0.03
70 | U20G C23A A26G G33C | 0.05
71 | U20G G21U G35U | 0.02
72 | U20C A41C C45A | 0

Row | Variant | self-cleavage
73 | U20C G21C C23G G27U G36A | 0.19
74 | U20C C23U A39U | 0.6
75 | U20C U28G C37A | 0.01
76 | U20C G30C G35U U38G | 0.04
77 | U20G A24G A39U | 1.38
78 | U20G G30C C37U | 0.09
79 | U20C U32C C45G | 0.03
80 | U20G G27C G36U C37U | 0.01
81 | U20G C31G G35C | 0.03
82 | U20G C42G C46A | 0.02
83 | U20G G33C C42U | 0.02
84 | U20C G21C C45G C46A | 0.26
85 | U20G C23G G30U | 0.53
86 | U20G G21U G27U U38C C42U | 0.48
87 | U20G G22A U38A A39U | 0.38
88 | U20G G33A G36U C37U A39C | 0.03
89 | U20G G21A A25C | 0.33
90 | U20C G22A A24U G27A C31A U38C | 0.32
91 | U20G G21U G33U | 0.06
92 | U20G G21U G33C | 0.04
93 | U20G G21A A39C | 0.05
94 | U20G C23G G30U U32G G40U | 0.02
95 | U20G G21A G40U C42A | 0.13
96 | U20C C37A G44C | 0.38

Row | Variant | self-cleavage
97 | U20G G21U G29U | 0.26
98 | U20G G27A C37A | 0.03
99 | U20C G22U C23G G33U | 1.1
100 | U20G G30A U32A | 0.05
101 | U20C G21U C45A | 0.14
102 | U20G G22U C23G G40A C42G | 0.14
103 | U20C U28A U34G G35A U38A C42A | 0.01
104 | U20C G33A G40A | 0.02
105 | U20G G21U G36C G40A | 0.36
106 | U20G G21C G29C G40A | 0.04
107 | U20G A26C C37G A41U C45A | 0.06
108 | U20C G33C C46U | 0.04
109 | U20G A25U G35U G36U | 0.06
110 | U20G C37U G44C | 0.03
111 | U20C G29A G33A G44A | 0.08
112 | U20G C23A G30C | 0.04
113 | U20G G22C A26U G44C | 0.06
114 | U20C G33U C46A | 0.39
115 | U20C G33U C46U | 0.05
116 | U20G G29A C42U | 0.13
117 | U20C U28G G29U | 0.17
118 | U20G A25G U43G | 0
119 | U20G A24U G27A | 0.35
120 | U20C G29A U32C | 0.13

Row | Variant | self-cleavage
121 | U20C G29A G40U | 0.2
122 | U20C G36C U38C A41U | 0.22
123 | U20G G22C G44U | 0.01
124 | U20G G35C G40U | 0.1
125 | U20C G33C C45U | 0.01
126 | U20C U34G A39U | 0.09
127 | U20G G21U C23G A24C G44A | 0.22
128 | U20G G21C G40A C45U C46U | 0.78
129 | U20C G22U G29A | 0.99
130 | U20C G30C G36C | 0.08
131 | U20C C31U C37U U43A | 0.01
132 | U20C G33C U34G | 0.17
133 | U20G A39G C46U | 0.03
134 | U20G G21A G29C A41C | 0.02
135 | U20C G29A G35U A39C G44U | 0.02
136 | U20G G29U G35U G36C A41C G44U | 0.4
137 | U20C C31A G44A | 0.04
138 | U20G G21U C42A | 0.82
139 | U20C G21A G33C G36A | 0.03
140 | U20G C42U G44A | 0.12
141 | U20C G21U C46G | 0.55
142 | U20G G29U G33C A39G | 0.02
143 | U20G A26C C45A | 0.53
144 | U20C U28C C31U | 0.36

Row | Variant | self-cleavage
145 | U20G A26U U43A | 0.01
146 | U20G A25G U28A C46U | 0.25
147 | U20G G29C G44C | 0.02
148 | U20C G21A A41U | 0.37
149 | U20G G35U C42A G44C | 0.06
150 | U20G G21U A41C | 0.05
151 | U20C G21A G36U C37G A39U | 0.01
152 | U20C C23A G29U U34A G40A | 0
153 | U20C U28A G29C | 0.46
154 | U20C U28C U43A | 0.03
155 | U20C G27A C31A G40U | 0.09
156 | U20G G21C G27C | 0.1
157 | U20C G21A A39G C46U | 0.03
158 | U20G A24U C45G | 0.05
159 | U20G A26G G29C A41U | 0.1
160 | U20G G22A G29A | 0.24
161 | U20C G27A G40A G44U | 0.06
162 | U20G G21U A41U C46A | 0.94
163 | U20G G33A A39G G40A | 0.08
164 | U20G A26U U32A C45A C46G | 0.01
165 | U20G A25U U28C | 1.78
166 | U20G G27U G36U G40C | 0.05
167 | U20C G27A C37U A39G | 0.02
